From PubChem BioAssay AID488969 (Vanderbilt High Throughput Screening Facility, 2010)
Whole data set: some 110,000 compounds, median “z-score” near -0.1, cut for the highest 2% near 2. The list shows a part of the results.

Molecular target: Metabotropic glutamate receptor 8 (Rattus norvegicus) (UniProt P70579)
Assay: rat mGluR8 modulators via GIRK flux, primary screen, cell-based, thallium flux, HTS (AID 488969)
Conditions: HEK293 rat mGluR8, GIRK (G protein-gated inwardly rectifying potassium channel) thallium flux, FluoZin2; at 10 µM; stronger effect = higher value; submaximal glutamate (EC20) added with thallium

UniProt P70579, sequence (P70579 whole entry, looked up): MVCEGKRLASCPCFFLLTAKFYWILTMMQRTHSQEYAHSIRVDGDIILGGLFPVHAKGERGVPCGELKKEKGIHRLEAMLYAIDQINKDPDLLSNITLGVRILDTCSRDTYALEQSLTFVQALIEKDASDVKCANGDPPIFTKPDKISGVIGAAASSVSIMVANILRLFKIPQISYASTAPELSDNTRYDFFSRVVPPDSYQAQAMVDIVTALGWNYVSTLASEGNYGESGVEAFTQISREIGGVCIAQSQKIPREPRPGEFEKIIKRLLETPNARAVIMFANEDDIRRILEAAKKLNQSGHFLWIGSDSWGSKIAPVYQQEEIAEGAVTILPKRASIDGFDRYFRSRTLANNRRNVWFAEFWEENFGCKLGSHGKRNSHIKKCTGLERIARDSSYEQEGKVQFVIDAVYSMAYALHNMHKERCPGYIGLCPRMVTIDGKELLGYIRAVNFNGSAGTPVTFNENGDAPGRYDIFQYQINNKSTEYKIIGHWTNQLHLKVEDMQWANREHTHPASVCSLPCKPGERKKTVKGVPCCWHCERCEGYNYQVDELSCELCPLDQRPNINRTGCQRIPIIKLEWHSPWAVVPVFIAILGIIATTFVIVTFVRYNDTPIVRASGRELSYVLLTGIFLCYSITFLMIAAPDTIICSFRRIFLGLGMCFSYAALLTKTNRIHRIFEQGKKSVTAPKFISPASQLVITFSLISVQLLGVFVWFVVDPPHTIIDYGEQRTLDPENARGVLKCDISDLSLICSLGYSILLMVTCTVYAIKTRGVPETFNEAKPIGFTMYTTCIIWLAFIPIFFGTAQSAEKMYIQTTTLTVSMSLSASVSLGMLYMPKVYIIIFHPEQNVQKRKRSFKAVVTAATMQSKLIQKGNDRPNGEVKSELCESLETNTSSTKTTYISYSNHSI

SMILES	z-score
NC(=O)c1oc2ccccc2c1NC(=O)c1ccccc1	-0.575
CCN(CC)S(=O)(=O)c1cccc(NC(=S)NC(=O)/C=C/c2ccc(S(=O)(=O)N3CCOCC3)cc2)c1	-0.127
COc1ccc(C(=O)NCCNC(=O)c2cc(OCC(F)(F)F)ccc2OCC(F)(F)F)cc1	-0.0999
CCOc1ccc(/C=N/NC(=O)C(=O)NCc2ccco2)cc1	-0.0955
Cc1ccccc1NC(=O)Cn1nc(-c2ccccc2)nc1-c1ccccc1	-0.268
CC(=O)c1coc2c1cc(O)c1ccccc12	-0.786
CCOC(=O)/C(C#N)=C1/SC(C)C(=O)N1c1ccc(Br)cc1 (stereo unspecified)	0.227
O=C1CCCC/C1=C/Nc1ccc2c(c1)OCO2	-0.127
CCOc1ccccc1C(=O)NC(C(=O)OCC(=O)Nc1nnc(-c2ccccc2)o1)C(C)C (stereo unspecified)	-1.8
COc1ccc(-c2ccc(-c3noc(-c4cccc(OC)c4)n3)c(OC)n2)cc1	0.15
O=C(CC1Sc2ccccc2NC1=O)OCc1cc(=O)oc2cc(O)ccc12 (stereo unspecified)	-0.575
Cc1ccc(Cn2ccc(NC(=O)c3cc(-c4ccc(Br)cc4)on3)n2)cc1	-0.182
O=C(Nc1ccc2ccccc2c1)C(c1ccccc1)C1CCCC1 (stereo unspecified)	0.0599
CCCCNC(=S)NNC(=O)c1csc2ccccc12	0.468
COC(=O)Nc1ccc(Oc2ccccc2)cc1	-0.226
COc1ccc(S(=O)(=O)N(C)CC(=O)NCc2cccnc2)cc1OC	-0.307
O=C(CCN1CCCC1)Nc1ccc(Br)cc1	-0.142
Cn1cnnc1Sc1nc2c(c(=O)n(C)c(=O)n2C)n1Cc1ccccc1Cl	-0.0672
O=C(Nc1ccccc1N1CCCCC1)c1cccs1	0.223
CC1CN(C(=O)c2ccccc2C(=O)c2ncc[nH]2)CC(C)O1 (stereo unspecified)	-0.287
CC(=O)N1CCN(C(=O)COc2ccc(Br)cc2)CC1	0.512
Cc1ccc(S(=O)(=O)NNC(=O)C2CCN(Cc3ccccc3)CC2)cc1	-0.361
CCOc1ccccc1N1CCN(C(=O)Nc2cccc(Cl)c2)CC1	-1.28
COc1cc(OC)c(C2CC(=O)N3CN(C)CSC3=C2C#N)cc1OC (stereo unspecified)	-0.561

SMILES	z-score
O=C(Nc1cccc(Cl)c1)N1CCCC1	0.56
CC/C(=N\NC(=O)c1ccoc1C)c1ccc(C)o1	-0.0816
Cn1c(N)c(C(=O)c2ccccc2)c(=O)n(C)c1=O	-0.397
COc1ccccc1N1CCN(C(=O)C(C)N(c2ccc(C)cc2)S(C)(=O)=O)CC1 (stereo unspecified)	-0.377
N/C(=N\OC(=O)CCCOc1ccccc1)c1ccc(Br)cc1	-0.188
CCCCC(=O)Nc1ccc(C(=O)N2CCN(C)CC2)cc1	0.377
CCc1c(C)sc(NC(=O)OC)c1C(N)=O	0.111
NC(=O)Nc1ccc(C(=O)OCC(=O)Nc2ccc([N+](=O)[O-])cc2C(F)(F)F)cc1	-0.192
CCOC(=O)c1cccc(NC(=O)CCn2nnc3ccccc32)c1	-0.406
COC(=O)c1cccc(NC(=O)C2C3CCC(C3)C2C(=O)O)c1 (stereo unspecified)	-0.265
Cc1nc(SCC(=O)Nc2nc3ccccc3s2)c(C#N)c(C)c1C	-0.047
COc1cc2c(cc1OC)C(c1cc3cc4c(cc3[nH]c1=O)OCO4)N(C(=O)C1CC1)CC2 (stereo unspecified)	-0.0712
CN1C(=O)C2(NCCc3c2[nH]c2ccccc32)c2ccccc21 (stereo unspecified)	-1.03
CSc1ccc(-c2cc(=O)c3ccccc3o2)cc1	-0.465
CC1(C)NC(=O)N(CC(O)CN2CCCC2)C1=O (stereo unspecified)	0.131
Cc1ccc(N2CC(C(=O)Nc3ccccn3)CC2=O)cc1 (stereo unspecified)	0.165
CCOc1ccc(S(=O)(=O)n2ccc(C)n2)c2ccccc12	0.487
CC(=O)N1CCc2ccc(C(=O)CN3CCN(c4cccc(C)c4C)CC3)cc21	-0.378
O=C(NC1CCCCC1)c1cc(Cl)nc2ccccc12	-0.135
CCOC(=O)c1c(-c2ccc(C)s2)csc1NC(=O)c1cccs1	0.24
CCCCC(c1nnnn1CC1CCCO1)N1CCN(Cc2ccccc2)CC1 (stereo unspecified)	-0.127
CC1(C)Cc2nc3sc4c(SCC(=O)NCc5ccco5)ncnc4c3cc2CO1	-0.999
O=C1CCCC2=C1C(c1ccc(Cl)cc1)n1c(s/c(=C\c3ccc4ccncc4c3)c1=O)=N2 (stereo unspecified)	-0.209
CCn1c(SC(C)C)nnc1-c1cc(-c2ccccc2)sc1N	-0.246

SMILES	z-score
O=C(NCCOc1ccccc1Cl)c1cc(F)c(F)cc1Cl	-0.0579
CCCCn1c2c(c(=N)c3c1CCC3)CCC2	-0.000682
CN(C)c1ccc(/C=N/N=C2/NC(=O)/C(=C/c3ccc([N+](=O)[O-])cc3)S2)cc1	0.0976
CCCCCC(=O)Nc1ccc(C(=O)N/N=C/c2ccc([N+](=O)[O-])cc2)cc1	0.145
CC(C)OCCCNC(=S)Nc1ccc(S(N)(=O)=O)cc1	0.0754
COc1ccc(C(=O)c2c(C)oc3cc([N+](=O)[O-])c(O)c([N+](=O)[O-])c23)cc1	0.0624
CCn1c(SCC(=O)N2CCc3ccccc32)nnc1-c1ccco1	-0.164
Cc1ccccc1OCc1nc2ccccc2c(=O)n1/N=C/c1cn[nH]c1-c1ccc(Br)cc1	-0.306
CSc1ccccc1NC(=O)CSCc1ccc(Br)cc1	-0.146
O=C(Nc1ccccc1)c1ccc(Nc2c([N+](=O)[O-])cc([N+](=O)[O-])c3ccccc23)cc1	-0.265
O=C(Nc1ccc([N+](=O)[O-])cc1)C1CC1(c1ccccc1)c1ccccc1 (stereo unspecified)	0.135
COc1ccc(OC)c(NC(=O)c2c3c(nc4ccccc24)CCC3)c1	-0.428
COCCn1c(C)c(C(=O)O)sc1=S	-0.353
CC1CN(C(=O)/C=C/c2cccc([N+](=O)[O-])c2)CC(C)O1 (stereo unspecified)	-0.164
C=CCn1c(=NC(=O)c2ccco2)sc2cc(C(=O)OCC)ccc21	-0.0278
CCOc1cc(C2C(C#N)=C(N)Oc3n[nH]c(-c4ccccc4)c32)ccc1O (stereo unspecified)	-0.392
Cc1cc(C)nc(/N=C(/NC(=O)Nc2ccc(Cl)c(Cl)c2)Nc2cccc(Cl)c2)n1	0.564
COCc1cc(C)nc(Nc2ccc(C)c(C)c2)c1C#N	1.01
CC(=O)Nc1c(C(=O)O)[nH]c2ccccc12	-0.038
CCOC(=O)c1nnn(-c2ccccc2)c1C	0.0748
C=CCn1c(=O)c2ccccc2n2c(SCC(=O)Nc3cc(C)on3)nnc12	-0.737
COc1cccc(NC(=O)C(NCCC(C)C)c2ccccc2)c1 (stereo unspecified)	-0.531
CCN1CCN(c2nc(Nc3cccc(C)c3)nc(N)c2[N+](=O)[O-])CC1	0.231
